Molecules are shown by their SMILES. Hit rate of the full screen: of about 340,000 compounds, about 6,900 (2%) were called active. No stated cut-off is given here; in the data, active means inhibition above about 30%; inactive means below that, where a call was filed. The entries are a selection whose mix differs from that of the whole data set. The source gives no active or inactive call for entries shown without one.

This experiment addresses D(2) dopamine receptor (Homo sapiens) (UniProt P14416). The experiment is described as follows: HTS Assay for Allosteric Antagonists of the Human D2 Dopamine Receptor: Primary Screen for Antagonists. Further: 0% is about no effect. The note with it: HEK293 TREx D2 cells, calcium flux, dopamine EC80; at 10 µM; stronger effect = higher value. The gist of the method: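 Dopamine at EC80 is the agonist stimulus; test compounds precede it by 180 s. Calcium flux read kinetically in a force-coupled, inducible HEK293 T-REx D2 cell line.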
Sequence of UniProt P14416 (P14416 whole entry, looked up): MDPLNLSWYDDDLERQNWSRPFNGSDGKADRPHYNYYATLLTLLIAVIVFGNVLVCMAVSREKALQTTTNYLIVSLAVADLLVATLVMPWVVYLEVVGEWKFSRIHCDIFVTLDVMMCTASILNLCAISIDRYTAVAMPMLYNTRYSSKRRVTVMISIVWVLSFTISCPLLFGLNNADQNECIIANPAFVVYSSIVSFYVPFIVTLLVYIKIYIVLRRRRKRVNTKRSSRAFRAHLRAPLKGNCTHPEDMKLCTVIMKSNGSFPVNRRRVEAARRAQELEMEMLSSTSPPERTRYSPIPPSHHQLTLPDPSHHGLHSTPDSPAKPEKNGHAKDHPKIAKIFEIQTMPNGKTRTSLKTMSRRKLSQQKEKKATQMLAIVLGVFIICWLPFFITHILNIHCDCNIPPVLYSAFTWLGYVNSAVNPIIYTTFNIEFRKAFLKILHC
Turning to `CCCCn1c(=N)c(S(=O)(=O)c2ccccc2)cc2c(=O)n3cccc(C)c3nc21`, the inhibition was 11.9%.

As to `Cc1nc2nc(SCC(=O)Nc3cccc(Cl)c3)nn2c(C)c1Cc1ccccc1`, the inhibition was -5.91%.

Consider `COc1ccc(Nc2nc3c(S(=O)(=O)c4ccccc4)nnn3c3ccc(Cl)cc23)c(OC)c1`, for which the inhibition is -8.16%.

For `CC1(C)CC(=O)C/C(=N/Nc2nc3ccccc3s2)C1`, the inhibition is active: 35.8%.

Regarding `Fc1ccc(-c2cc(-c3nc(-c4ccccc4)no3)[nH]n2)cc1`, the inhibition stood at 11.1%.

Take `Cc1ccc(S(=O)(=O)N(C)C)cc1NC(=S)N1CCc2ccccc21`: the inhibition was active: 55.3%.

Turning to `CC(C)c1ccc(NC(=O)c2cn(C3CCCCC3)c(=O)c3c2c2ccccc2n3C)cc1`, the inhibition turned out to be 9.36%.

On to `Cc1ccc(CNC(=O)Cn2c(=O)n(Cc3ccccc3)c(=O)c3c2c2cc(C)ccc2n3C)cc1`, for which the inhibition was -4.11%.

As to `COc1cc(N2C(=O)CSC23C(=O)N(C)c2ccccc23)cc(OC)c1OC` (stereo unspecified), the inhibition was found to be 2.05%.

As for `CCOc1ccc(N2CC(C)Cn3c2nc2c3c(=O)n(CC(=O)O)c(=O)n2C)cc1` (stereo unspecified), the inhibition is -6.07%.

As to `COc1ccc(Cl)cc1NC(=O)Nc1cccc([N+](=O)[O-])c1C`, the inhibition was active: 66.3%.

Consider `COCCN1Cc2cccc(C(=O)Nc3ccc(C)c(F)c3)c2C1=O`, for which the inhibition was 13.6%.

Take `Cc1cc(C)cc(NC(=O)C(=O)NCC(c2ccc3c(c2)OCO3)N2CCOCC2)c1` (stereo unspecified): the inhibition amounted to 12.6%.

Take `COC(=O)c1cccc(NC(=O)N(C)CCc2c(C)nn(C)c2C)c1`: the inhibition was found to be 11.8%.

Regarding `Cc1ccc(CNC(=O)c2cccc(N3CCCS3(=O)=O)c2)cc1`, the inhibition came out at 6.35%.

For `CN(C(=O)CSc1nc2ccc(NC(=O)c3ccccc3F)cc2s1)c1ccccc1`, the inhibition amounted to 9.44%.

In the case of `CCCCn1cc(S(=O)(=O)c2ccc(OCC)cc2)c(=O)c2cc(OC)c(OC)cc21`, the inhibition is -1.39%.

Regarding `CCOc1ccc(C2C(=O)N(C3CCCCCC3)CC(=O)N2CCC2=CCCCC2)cc1OC` (stereo unspecified), the inhibition was -24.7%.

Regarding `Cc1ccc(NC(=O)CN(CCc2ccccc2)S(=O)(=O)c2ccccc2)c(C)c1`, the inhibition was -7.56%.

Turning to `CCOc1ccc(CNC(=O)Cn2nc(C)n3cccc3c2=O)cc1`, the inhibition was 28.1%.

In the case of `CCc1ccc(-n2nc3ccc(NC(=O)c4cc(Cl)c(OC)c(Cl)c4)cc3n2)cc1`, the inhibition is -16.1%.

Consider `Cc1ccc(CNC(=O)c2cc3c(s2)CN(Cc2ccccc2)C3)cc1`, for which the inhibition is active: 38.9%.

Consider `Cc1ccc(C)c(NC(=O)CCS(=O)(=O)c2cccc3nsnc23)c1`, for which the inhibition worked out at 4.65%.

`CCc1cccc(CC)c1N(COC)C(=O)Cn1c(CC)nc2ccccc21`: the inhibition is -11.3%.

In the case of `Cc1ccc(NC(=O)Cn2c(CCC(=O)O)ccc2-c2cccs2)cc1Cl`, the inhibition is -2.29%.

On to `Cn1c(=O)oc2cc(S(=O)(=O)N3CCCC(C(=O)N4CCN(c5ccc(Cl)cc5)CC4)C3)ccc21` (stereo unspecified), for which the inhibition stood at 3.67%.

In the case of `O=C(CCNC(=O)c1ccc(Br)cc1)NCCCc1ccccc1`, the inhibition was active: 34.2%.

For the compound `Cc1ccc(C)c(N2CCN(C(=O)C3CCN(S(=O)(=O)c4ccc5[nH]c(=O)oc5c4)CC3)CC2)c1`, the inhibition is -2.15%.

`CCc1ccc2nc(N3CCN(C(=O)c4ccccc4)CC3)sc2c1`: the inhibition is -19.9%.

Regarding `Cc1cc2c(cc1S(=O)(=O)N(CCO)Cc1ccccc1)OCC(=O)N2`, the inhibition was -24.5%.

In the case of `COc1ccc(NC(=O)CN2C(=O)CSc3ccc(S(=O)(=O)N(C)C)cc32)cc1OC`, the inhibition was -10.2%.

Turning to `CCOc1cc(C2C(C(=O)Nc3ccccc3)=C(C)Nc3ncnn32)cc(Br)c1O` (stereo unspecified), the inhibition was -6.63%.

As for `CCNS(=O)(=O)c1cc(-c2nnc(Nc3cccc(C(F)(F)F)c3)c3ccccc23)ccc1C`, the inhibition turned out to be 7.34%.

As for `COC(=O)c1cc2oc3ccccc3c2n1CC(=O)Nc1ccc(OC)c(OC)c1`, the inhibition came to 0.695%.

Turning to `O=C(NC1CCCCC1)c1ccc(CSc2nc3ccncc3n2Cc2ccccc2)cc1`, the inhibition came out at 7.06%.

As to `Cc1ccc2onc(CC(=O)N3CCN(c4ccc(Cl)cc4)CC3)c2c1`, the inhibition is -4.85%.

`O=C(NCCc1ccccc1)c1ccc(Cn2c(=O)c3cccn3c3cccnc32)cc1`: the inhibition was 10.1%.

On to `Cc1ccc(NC(=O)Cn2c(=O)n(CCCC(=O)NCc3ccc4c(c3)OCO4)c(=O)c3ccccc32)cc1`, for which the inhibition worked out at 9.78%.

`CCCCCCc1c(C)c2c(cc(C)c3c(C)c(C)oc32)oc1=O`: the inhibition is -10.1%.

For the compound `Cc1cccc(N2CCN(C(=O)CCCn3c(=O)[nH]c4ccsc4c3=O)CC2)c1C`, the inhibition was -2.46%.

On to `O=C1CC(c2nc3ccccc3n2CCC2CCCCC2)CN1c1ccccc1Cl` (stereo unspecified), for which the inhibition came to 3.04%.

For the compound `Oc1c(C(c2ccccc2F)N2CCC3(CC2)OCCO3)sc2nc(-c3ccco3)nn12` (stereo unspecified), the inhibition was found to be 24.4%.

On to `CCCCN(C(=O)Nc1ccc(Cl)cc1)C1CCN(C(C)=O)CC1`, for which the inhibition is -15.6%.

Consider `CC(=O)c1cccc(NC(=O)C2=CC(c3ccc(F)cc3)=NS(=O)(=O)N2C)c1`, for which the inhibition was determined as 3.46%.

For `CCOc1ccc(NC(=O)C2CCCN(c3nn4cc(-c5ccc(OC)cc5)nc4s3)C2)cc1` (stereo unspecified), the inhibition is -5.94%.

As for `O=C(Cn1cnc(S(=O)(=O)N2CCCC2)c1)Nc1cccc(F)c1`, the inhibition is -5.35%.

Consider `Cc1nc2nc(C)c(NS(=O)(=O)c3ccc(F)cc3)c(=O)n2[nH]1`, for which the inhibition turned out to be 8.43%.

In the case of `Cc1ccc(NC(=O)c2sc3nc4n(c(=O)c3c2C)CCCCC4)c(Br)c1`, the inhibition was 10.9%.

For `CCOC(=O)c1cc2c(=O)n3ccccc3nc2n(CCCOC)c1=NC(=O)c1c(-c2ccccc2Cl)noc1C`, the inhibition stood at 0.334%.

In the case of `CCCS(=O)(=O)NCCc1csc2nc(-c3ccc(C)cc3)nn12`, the inhibition was -12.7%.

For the compound `COc1ccc(-n2nc(C(=O)NCCCOC(C)C)c3c4ccccc4n(C)c3c2=O)cc1`, the inhibition was -3.36%.

`COc1ccc(OC)c(N(C(=O)c2ccco2)C(C(=O)NC2CCCC2)c2cc(OC)c(OC)c(OC)c2)c1` (stereo unspecified): the inhibition is active: 36.2%.

Consider `O=C(Nc1c(Cl)cccc1Cl)c1cccc2c1C(=O)N(C1CCCCC1)C2`, for which the inhibition amounted to 0.344%.

As to `O=C(O)c1ccc2oc(=O)n(Cc3ccccc3)c2c1`, the inhibition is 13.6%.

As to `CCOC(=O)C1CCN(C(=S)NC2CCCC2)CC1`, the inhibition is active: 34.1%.

For `COc1ccc(C2C(=O)N(C3CCC(C)CC3)CC(=O)N2C2CCCCC2)cc1OC` (stereo unspecified), the inhibition amounted to 19.9%.

As for `Fc1ccccc1N1CCN(c2ncnc3c2nc2n3CCCCC2)CC1`, the inhibition was -0.206%.

With `COc1ccc(CNc2nc3c(-c4ccc(C)cc4)nnn3c3ccccc23)cc1`, the inhibition was -6.28%.

Consider `CCOc1ccc(NC(=O)CC2C(=O)N(c3ccc(F)cc3)C(=O)N2CCc2sccc2C)cc1` (stereo unspecified), for which the inhibition is 15.6%.

Take `COCCN(Cc1ccco1)C(=O)c1cc2c(Cl)nc3ccc(C)cc3c2s1`: the inhibition is -3.21%.

In the case of `CCN(CC)CCCNC(=O)CSc1nc2nc(C)c(Cc3ccccc3C)c(C)n2n1`, the inhibition was -2.06%.

The term inhibition denotes the change of the read-out against control, counted positive when it falls.

Values taken from PubChem BioAssay AID485344 (National Center for Advancing Translational Sciences (NCATS), 2010).
